Patent US20240376128A1, “N-CYCLOPROPYLPYRIDO [4, 3-D] PYRIMIDIN-4-AMINE DERIVATIVES AND USES THEREOF” (Jacobio Pharmaceuticals Co., Ltd., priority 2021, published 2024)

Key:
[1] = system: AGS cell line (K-Ras G12D); assay: Phospho-ERK1/2(THR202/TYR204) HTRF assay; assay type: cell-based; settings: Homo sapiens; AGS cells (K-Ras G12D), 2 hours incubation; read-out: p-ERK, IC50(nM) AGS
[2] = system: SW620 cell line (K-Ras G12V); assay: Phospho-ERK1/2(THR202/TYR204) HTRF assay; assay type: cell-based; settings: Homo sapiens, read-out: p-ERK, IC50(nM) SW620
[3] = SW-620, SW620 cells (K-Ras G12V), 2 hours incubation

## CCc1c(F)ccc2cc(O)cc(-c3ncc4c(N(C)[C@@H]5C[C@H]5F)nc(OC[C@@]56CCCN5C[C@H](F)C6)nc4c3F)c12.O=C(O)C(F)(F)F (mixture of isomers) [Compound 15, 5-ethyl-6-fluoro-4-(8-fluoro-4-((trans-2-fluorocyclopropyl)(methyl)amino)-2-(((2R,7aS)-2-fluorotetrahydro-1H-pyrrolizin-7a(5H)-yl)methoxy)pyrido[4,3-d]pyrimidin-7-yl)naphthalen-2-ol 2,2,2-trifluoroacetic acid]
[1]
  IC50: 23.5 nM
[2]; [3]
  IC50: 2.75 nM

## C#Cc1c(F)ccc2cc(O)cc(-c3nc(OC)c4c(N(C)C5CC5)nc(OC[C@@]56CCCN5C[C@H](F)C6)nc4c3F)c12 [Compound 2, 4-(4-(cyclopropyl(methyl)amino)-8-fluoro-2-(((2R,7aS)-2-fluorotetrahydro-1H-pyrrolizin-7a(5H)-yl)methoxy)-5-methoxypyrido[4,3-d]pyrimidin-7-yl)-5-ethynyl-6-fluoronaphthalen-2-ol]
[1]
  IC50: 27.8 nM
[2]; [3]
  IC50: 17.4 nM

## C#Cc1c(F)ccc2cc(O)cc(-c3ncc4c(NC5CC5)nc(OC[C@@]56CCCN5C[C@H](F)C6)nc4c3F)c12 [Compound 18, 4-(4-(cyclopropylamino)-8-fluoro-2-(((2R,7aS)-2-fluorotetrahydro-1H-pyrrolizin-7a(5H)-yl)methoxy)pyrido[4,3-d]pyrimidin-7-yl)-5-ethynyl-6-fluoronaphthalen-2-ol formic acid]
[2]; SW-620, 2 h
  IC50: 49.3 nM

## C#Cc1c(F)ccc2cc(O)cc(-c3ncc4c(N(C)C5(C)CC5)nc(OC[C@@]56CCCN5C[C@H](F)C6)nc4c3F)c12 [Compound 19]
[2]; [3]
  IC50: 89.2 nM

## O=C(O)C(F)(F)F.[2H]C([2H])([2H])N(c1nc(OC[C@@]23CCCN2C[C@H](F)C3)nc2c(F)c(-c3cc(O)cc4ccc(F)c(C#C)c34)ncc12)[C@H]1C[C@@H]1F [Compound 7, 5-ethynyl-6-fluoro-4-(8-fluoro-4-(((1S,2S)-2-fluorocyclopropyl)(methyl-d3)amino)-2-(((2R,7aS)-2-fluorotetrahydro-1H-pyrrolizin-7a(5H)-yl)methoxy)pyrido[4,3-d]pyrimidin-7-yl)naphthalen-2-ol 2,2,2-trifluoroacetic acid]
[1]
  IC50: 7.23 nM
[2]; [3]
  IC50: 6.36 nM

## C#Cc1c(F)ccc2cc(O)cc(-c3ncc4c(N(C)[C@@H]5C[C@@H]5F)nc(OC[C@@]56CCCN5C[C@H](F)C6)nc4c3F)c12 [Compound 13, 5-ethynyl-6-fluoro-4-(8-fluoro-4-(((1R,2S)-2-fluorocyclopropyl)(methyl)amino)-2-(((2R,7aS)-2-fluorotetrahydro-1H-pyrrolizin-7a(5H)-yl)methoxy)pyrido[4,3-d]pyrimidin-7-yl)naphthalen-2-ol]
[2]; [3]
  IC50: 34.8 nM

## [2H]C([2H])([2H])N(c1nc(OC([2H])([2H])[C@@]23CCC([2H])([2H])N2C[C@]([2H])(F)C3)nc2c(F)c(-c3cc(O)cc4ccc(F)c(C#C)c34)ncc12)C1CC1 [Compound 26, 4-(4-(cyclopropyl(methyl-d3)amino)-8-fluoro-2-(((2R,7aS)-2-fluorotetrahydro-1H-pyrrolizin-7a(5H)-yl-2,5,5-d3)methoxy-d2)pyrido[4,3-d]pyrimidin-7-yl)-5-ethynyl-6-fluoronaphthalen-2-ol]
[1]
  IC50: 36.2 nM
[2]; [3]
  IC50: 8.74 nM

Like-named read-outs stand apart in the source and are kept apart here.
